Source: the supplement of paper PMC10126150
Values marked as one replicate rest on one cluster of the flow cell; about a third of the high ones do not repeat.

Test system: ATP
Assay: switch fluorescence ratio, 500 uM ATP over buffer (Cy3 cluster intensity, sum of 5 cycles each) (fold (ratio)); higher = stronger signal-on switching upon ATP binding; sequences stand for … in TCGTCGGCAGCGTCAGATGTGTATAAGAGACAGTTTTTTTTTTTTTTTTTTTTTTTTT…TC
Details: aptamer strand: ATP DNA aptamer (quencher-CACCTGGGGGAGTATTGCGGAGGAAGG + anchor), 100 nM annealed; ATP concentration: 500 uM; one replicate
Procedure, shortened: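 Cy3-labelled switching-strand clusters on a modified Illumina MiSeq flow-cell were annealed to 100 nM quencher-labelled ATP aptamer and imaged first in selection buffer, then after 15 min with 500 uM ATP at 22 °C. NaOH stripping and re-annealing separated each of five buffer/ATP cycles, and clusters outside 100-1000 RFU were excluded. The fluorescence ratio sums target-cycle Cy3 intensity over buffer-cycle Cy3 intensity per cluster and averages it per switch-domain sequence.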
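Also: ATP exposure 15 min at 22 °C before imaging.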

Row | Sequence | switch fluorescence ratio
1 | TACCGTCACC | 1.59
2 | GGGTATCGGT | 0.992
3 | GGATGCTCCC | 1.21
4 | GGAGGGCGTA | 1
5 | AAAACCGTGC | 1.23
6 | GCCCGTTCCG | 1.03
7 | GGTCGCTAAA | 0.929
8 | GCAGTCACGG | 1.04
9 | CAACTTCAAT | 1.03
10 | CGTTATCGGG | 0.989
11 | CCTCTAGGCC | 1.22
12 | GACCTTCGT | 1.4
13 | GAGTCAGCAG | 1.19
14 | GTTGAGGTTG | 0.975
15 | AAGATGATCG | 1.03
16 | GCGGTAGCTT | 0.994
17 | AAGAAGTTTC | 0.996
18 | CAGTCGTTCG | 0.97
19 | GAATAACCCG | 1.04
20 | TCAGTCCCGC | 1.05
21 | TGGTGAGTGT | 1.07
22 | GGAGCCGATA | 1.15
23 | AGATAGAAGC | 1.06
24 | TGTAGAGATG | 0.996
25 | CATTACCCTT | 1.04
26 | GACAGGTAG | 1.05

Row | Sequence | switch fluorescence ratio
27 | CAGGGGATTT | 0.993
28 | ATTAGTGAGG | 1.01
29 | CTATTCCATG | 1.01
30 | TTAAACTTCT | 1.06
31 | TGCGGGTCAG | 1.01
32 | GGGCTCTACC | 1.06
33 | GGGAATAAC | 0.984
34 | GGTGAGGCGA | 1.07
35 | GAGGCATTTC | 1.95
36 | CCGGGTTGT | 1.05
37 | ATTTGTGAAT | 0.985
38 | GAGGTTCTC | 1.15
39 | TAGGGTAATG | 0.944
40 | GATTAAACTT | 1
41 | AACATGTACG | 1.15
42 | GGGAGTGG | 0.965
43 | GTAAATTG | 0.972
44 | GTTTGAATTC | 0.97
45 | AGCGACATTA | 1.01
46 | GGCGGGGCGG | 1.01
47 | TATATCGTGT | 1
48 | GTTTCGCA | 1.06
49 | TGTACTGGAG | 1.04
50 | TGGGTAGGAC | 0.973
51 | TACATGGGTC | 0.96
52 | CTTTTTGCTA | 0.994

Row | Sequence | switch fluorescence ratio
53 | TTGGAAGCAA | 1.01
54 | GCTACAAGGG | 1.05
55 | TGGGGCCGTT | 0.989
56 | CCATAAGTTT | 0.96
57 | ATGTACTCTA | 1.15
58 | TATGCGAAGA | 1.07
59 | CGAGACTGGG | 1.01
60 | AGAGGTAAAG | 1.02
61 | CGTAGGCTTG | 1.08
62 | TTAGCATCTC | 1.28
63 | GATAGGCTGT | 1.02
64 | AAAAGCGATG | 0.989
65 | TAGAGGTGCG | 1.1
66 | CGATGGCAGC | 1.38
67 | ACTATGGTTT | 1.04
68 | ACCACGAGAT | 1.14
69 | TCGGATTGAG | 0.998
70 | CTTCATCGTT | 1.01
71 | GCGTGATTCA | 0.986
72 | ACTAGTTAAC | 0.961
73 | GATCTCTAAA | 0.962
74 | GCTGGTGAA | 1.01
75 | TTCCCGTGAT | 1.07
76 | GATAGACCGA | 1.01
77 | GCGTGTTGTA | 1.05
78 | TTGGTGGATT | 0.979

Row | Sequence | switch fluorescence ratio
79 | CTTGGTACAA | 1
80 | ATTTCCGAAA | 1.1
81 | GGGCAATGGC | 1.13
82 | AGCCAAACGC | 1.03
83 | ACAGAAAGTC | 1.03
84 | TCATTTGATG | 0.963
85 | CCCATCGGGC | 1.01
86 | ATGTTTGGA | 1.02
87 | GAGGGTGGCT | 0.979
88 | TAGAGATACC | 1.02
89 | AAGTGAATC | 0.972
90 | GAGCAGGACC | 1.1
91 | CGTTGAATCC | 1.03
92 | TTGGGAAGTC | 1
93 | ACCAACGAAC | 1.34
94 | GCCTAAAGAC | 1.2
95 | CTAGCTGCCC | 1.1
96 | CAGGAAACCA | 1.09
97 | ACGCTCCAAC | 1.47
98 | TGATAGGTGA | 1.08
99 | ATGCGTTGG | 1.03
100 | TGGACCATA | 1.06
101 | CTACGTTGAT | 1.13
102 | AATCAAAAGG | 1.17
103 | TTTGAATAAA | 1
104 | CGAAACGTTG | 0.989

Row | Sequence | switch fluorescence ratio
105 | AAATTGTTGC | 1.03
106 | AGGGCCGGGG | 1.01
107 | CTGGACGCGT | 1.01
108 | GTATATCAGA | 0.989
109 | AGACGTAGCC | 1.03
110 | GCCGTTCGTC | 1.02
111 | GGAGACATAG | 1.11
112 | AAAAGGGAAC | 1.01
113 | ATACAGTTGG | 1.01
114 | TTCCGCGGTA | 1.67
115 | TAGTGTGAGT | 0.999
116 | ACTGTCTAGG | 1.01
117 | AATGGGGTCG | 0.942
118 | GGCTGCAAG | 1.01
119 | GTATTCAGGC | 0.939
120 | GTCTATCACT | 0.991
121 | GTATGTACCA | 1.01
122 | ATTTGCAACG | 1.03
123 | CAGCAATGAG | 1.83
124 | GCCGTCCTTG | 0.977
125 | CGTATAGAGC | 0.967
126 | AAGCCGAACC | 1.46
127 | ATGAGGCGG | 0.999
128 | TACAGACTAC | 1.28
129 | CCTGTTGATG | 0.976
130 | AAAAAACGCA | 1.13

Row | Sequence | switch fluorescence ratio
131 | CGGGTCAGGC | 0.999
132 | ACCATGATTC | 1.09
133 | TTAAAGTCCA | 0.99
134 | GGGGAGGAGA | 1.02
135 | AATCTTAGGG | 0.958
136 | GTACGCTAAG | 1.21
137 | GAAACTCATG | 0.995
138 | GGTAGTTCAG | 0.981
139 | AACAGCTTTT | 0.987
140 | ACGGTCT | 1.03
141 | TCGATCAGTG | 0.954
142 | AAAACGTGGT | 1.03
143 | CGGCTTGGGT | 0.955
144 | ATACAGGCCT | 1.03
145 | GGGGTTGATT | 0.971
146 | AACTAACCCC | 1.16
147 | AAACGGTTTG | 1.02
148 | AAGGGGGTA | 0.968
149 | GGACAAATGT | 0.995
150 | CTGTTTTATT | 0.999
151 | GAGCCAACGG | 0.94
152 | GGGCTTATCG | 0.997
153 | CATGTTGAAC | 1.02
154 | TCGATGCCAC | 1.21
155 | GAAGACAGAC | 1.27
156 | AAGTATTGAC | 1.06

Row | Sequence | switch fluorescence ratio
157 | GACACGAGTA | 1.02
158 | TAAGTGCTCC | 1.01
159 | CAACAGAAGT | 1.01
160 | GCCCCGCCCG | 1.1
161 | GGCCATTAA | 1.04
162 | TTTATTGATT | 1.01
163 | CGAGGAGCAC | 1.06
164 | CATACTTG | 1
165 | CTGCGGGGCT | 1.27
166 | TACCTTGTGC | 1.03
167 | TGAATTAGAG | 1
168 | CAGAGGCTGC | 1.12
169 | AATTTTTAAT | 1.01
170 | CATCACTTCA | 1.06
171 | CTTTATTGTG | 0.945
172 | CAACTCATA | 1.04
173 | AGGAGAGATA | 0.973
174 | AGGTGATGGC | 0.955
175 | ACGCGTGAAA | 0.974
176 | ACGTGATAGC | 1.33
177 | CAGGACTAGT | 1
178 | AATCGGACAA | 1.05
179 | CTATGTTATA | 0.987
180 | CCGGCCTGAA | 0.99
181 | ATATATCGAT | 0.977
182 | TTGAGTAACA | 1.03

Row | Sequence | switch fluorescence ratio
183 | CTGAGAAATG | 0.988
184 | GGGGCAACGC | 0.977
185 | GCTACTTAG | 1.05
186 | GGAGATAGG | 0.992
187 | GCCCGCTCCC | 1.87
188 | AGTATATATC | 0.966
189 | GCGTCAGCGT | 1
190 | CACCGGTTAT | 1.06
191 | ATGGGCTTAA | 1.01
192 | GAGAGTTTTT | 0.954
193 | GACCGAGGTA | 1.04
194 | CTAGATGGGG | 1.03
195 | TCACACTGGA | 0.924
196 | GCGCCTCACT | 1.04
197 | GAAGTCCGAT | 1.01
198 | ATCAGGTTG | 1.06
199 | TGACCTGGGT | 1.06
200 | TTGAGACCAG | 1
201 | TGGTCAAAGG | 0.946
